Experimental data published in the CheMixHub viscosity set.
The source gives many values for each of these; only a part stands here.

Assay: xn = mol fraction of the nth substance listed
Conditions: 318.15 K, 101 kPa

OCCCOCCCO + NCCN
Conditions	viscosity [mPa·s]
x1 = 0.1611	2.11
x1 = 0.1943	2.51
x1 = 0.23	3.06
x1 = 0.2682	3.73
x1 = 0.3094	4.64
x1 = 0.3538	5.8
x1 = 0.4019	7.31
x1 = 0.4541	9.03
x1 = 0.5111	11.2
x1 = 0.5734	13.6
x1 = 0.6418	16
x1 = 0.7174	18.2
x1 = 0.8013	19.9
x1 = 0.8949	20.8
